# Hit rate of the full screen: of about 200,000 compounds, about 4,500 (2.2%) were called active. Inconclusive results, whose numbers are uncertain, are shown with a selection of clear calls. The call rests on the fitted dose curve; in most records, active means well fitted inhibition curve with a large enough effect; inconclusive means small, poorly fitted or top-dose-only effect, or effect the other way; inactive means flat fitted curve, though single readings scatter. Potencies of inconclusive entries are doubtful fits and often do not repeat.
# Target: Cruzipain (Trypanosoma cruzi) (UniProt P25779)
# UniProt P25779, sequence (P25779 whole entry, looked up): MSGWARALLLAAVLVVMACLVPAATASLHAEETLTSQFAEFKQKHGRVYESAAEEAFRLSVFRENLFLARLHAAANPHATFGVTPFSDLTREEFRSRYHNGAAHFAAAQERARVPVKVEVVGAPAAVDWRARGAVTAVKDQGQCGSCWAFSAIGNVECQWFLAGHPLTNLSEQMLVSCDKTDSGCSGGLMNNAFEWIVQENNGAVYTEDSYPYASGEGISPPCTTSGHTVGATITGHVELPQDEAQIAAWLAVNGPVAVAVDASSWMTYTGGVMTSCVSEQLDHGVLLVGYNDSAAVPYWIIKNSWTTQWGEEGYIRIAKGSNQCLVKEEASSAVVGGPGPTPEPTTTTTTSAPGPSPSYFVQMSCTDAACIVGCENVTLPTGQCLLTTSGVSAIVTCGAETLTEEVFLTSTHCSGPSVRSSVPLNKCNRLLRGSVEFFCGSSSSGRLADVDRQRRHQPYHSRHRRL
# Assay: qHTS Assay for Promiscuous and Specific Inhibitors of Cruzain (without detergent); further: nearly all actives have a fitted effect of over 40% in size;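 on max response, negative = inhibition: plate controls were enzyme without inhibitor for no effect and buffer without enzyme for full effect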
# Conditions: purified cruzain, Z-FR-AMC fluorescence, no detergent
# Summary of the method: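 Purified cruzain at 1.5 nM, pre-incubated 15 min with compound at room temperature in 100 mM sodium acetate pH 5.5, 5 mM DTT, 0.00005% Triton X-100. Reaction started with 2 uM Z-FR-AMC; AMC fluorescence increase over 60 s gives rate.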
# Potency means the concentration at half of the fitted maximal effect; tags describe the fitted curve by direction and shape.
SMILES,Potency,"max response, negative = inhibition"
O=C(c1ccc(COc2ccc(F)cc2)o1)n1cccn1,active: 12.6 µM,
COC(=O)CNC(c1ccccc1Cl)c1cc(Br)ccc1NS(=O)(=O)c1ccc(C)cc1 (stereo unspecified),"inconclusive: 39.8 µM [inhibitor, single point]",
COc1ccc(S(=O)(=O)N2CCC(c3nnc(-c4ccccc4C)o3)CC2)c(OC)c1,"inconclusive: 31.6 µM [activator, single point]",
CCCn1c2c(c(O)c(C(=O)NCc3ccccc3)c1=O)CCCC2,,inactive: -0.71%
COc1cc(C(=O)Nc2cccc(OCc3cc(=O)n4c(C)csc4n3)c2)cc(OC)c1OC,,inactive: -16.5%
O=C(CN1CCCC1)Nc1c2c(nc3ccccc13)N(Cc1ccccc1)CC2,,inactive: 1.84%
CCOc1ccc(/C=N/n2c(SC)nnc2-c2ccccc2)cc1OCC,"inconclusive: 39.8 µM [activator, single point]",
Cc1cc(C)n(CC(O)Cn2c3ccc(Cl)cc3c3cc(Cl)ccc32)c(=O)n1 (stereo unspecified),"inconclusive: 25.1 µM [activator, partial curve]",
COc1ccc2ccccc2c1C1CC(=O)N2CN(C3CCCCC3)CSC2=C1C#N (stereo unspecified),"inconclusive: 7.94 µM [inhibitor, partial curve]",
CCOc1ccc(NC(=O)Cc2ccc(NC(=O)N3CCCCc4ccccc43)cc2)cc1,,inactive: 2.41%
O=C1CC(c2ccco2)CC(O)=C1C=Nc1cc(Cl)ccc1O (stereo unspecified),"inconclusive: 31.6 µM [inhibitor, single point]",
COc1ccc(-c2nnc(SCC(=O)NCc3ccccc3)nc2-c2ccc(OC)c(OC)c2)cc1OC,"inconclusive: 31.6 µM [activator, single point]",
Cc1ccc(CN(Cc2ccco2)C(=O)COc2ccc(Cl)cc2Cl)cc1,"inconclusive: 31.6 µM [inhibitor, single point]",
CN1CCN(C(=O)c2cnn(-c3cccc(Cl)c3)c2C2CCN(C(=O)OC(C)(C)C)CC2)CC1,,inactive: -3.53%
COc1cccc(CNC(=O)c2ccc3c(c2)N(Cc2ccc(C(F)(F)F)cc2)C(=O)c2ccccc2S3)c1OC,active: 10 µM,
Cc1nn(-c2ccccc2)c2c1N(CCCC(=O)NCc1ccc(Cl)cc1)C(=O)CS2,"inconclusive: 31.6 µM [activator, single point]",
O=C(NCc1ccco1)c1c[nH]c2ccc(S(=O)(=O)Nc3ccc(F)cc3F)cc2c1=O,,inactive: -19.3%
CCOC(=O)N1CCC(N2C(=O)c3ccccc3C2Nc2ccc3c(C)cc(=O)oc3c2)CC1 (stereo unspecified),"inconclusive: 3.98 µM [activator, partial curve]",
Cc1cccc2sc(NC(=O)CN3C(=O)c4ccccc4C3=O)nc12,"inconclusive: 39.8 µM [inhibitor, single point]",
N#Cc1ccccc1S(=O)(=O)N1CCCC(c2nc3c(nnn3Cc3cccc(Cl)c3)c(=O)[nH]2)C1 (stereo unspecified),"inconclusive: 31.6 µM [inhibitor, single point]",
CCOC(=O)/C=C/CCC/C=C/C(=O)c1ccccc1,,inactive: -10.3%

SMILES,Potency,"max response, negative = inhibition"
COCCOC(=O)c1c(C)nc(SCC(=O)Nc2ccc(C)cc2)c(C#N)c1-c1ccco1,"inconclusive: 39.8 µM [activator, single point]",
CCc1ccc(C(=O)c2c(N)c(-c3nc(-c4ccc5c(c4)OCO5)cs3)c3ccccn23)cc1,active: 2.51 µM,
Oc1c(C(c2ccc(Br)cc2)N2CCOCC2)sc2nc(-c3ccco3)nn12 (stereo unspecified),"inconclusive: 39.8 µM [activator, single point]",
COc1ccc(N2C(=O)[C@@H]3[C@H](C2=O)[C@H]2c4ccccc4C=CN2[C@@H]3C(=O)Nc2ccccc2)cc1,"inconclusive: 25.1 µM [inhibitor, single point]",
COc1ccc(/C=C2/SC(=O)N(CC(O)Cn3c4ccccc4c4ccccc43)C2=O)cc1 (stereo unspecified),active: 10 µM,
O=C1NC(c2ccc(-c3ccccc3[N+](=O)[O-])o2)C(C(=O)c2ccc(Cl)cc2)C(O)(C(F)(F)F)N1 (stereo unspecified),"inconclusive: 39.8 µM [activator, single point]",
COc1ccc(-c2cnnc(N/N=C/c3ccc(O)c(O)c3)n2)cc1,,inactive: -5.33%
COc1ccc(NC(=O)N2CCN(c3cccc(C(F)(F)F)c3)CC2)cc1,"inconclusive: 25.1 µM [inhibitor, single point]",
CCN(CCCNC(=O)CSc1cc(=O)n(C)c2cc(Cl)ccc12)c1cccc(C)c1,"inconclusive: 6.31 µM [activator, single point]",
C#CCSC1=C(C#N)C(c2cccs2)C(C(=O)OCC)=C(C)N1 (stereo unspecified),active: 20 µM,
Cc1ccc(N2C(=O)c3ccccc3NC2C(C)Cc2ccc3c(c2)OCO3)cc1 (stereo unspecified),"inconclusive: 31.6 µM [inhibitor, single point]",
O=C(NC(=S)Nc1ccccc1O)c1ccc(-c2ccc(Cl)cc2)o1,active: 15.8 µM,
Fc1ccc(C(Nc2ccc(Cl)c(C(F)(F)F)c2)c2nnc(-c3ccccc3)o2)cc1 (stereo unspecified),"inconclusive: 39.8 µM [inhibitor, single point]",
NC(=S)N=Nc1c(O)n(Cc2ccc(F)cc2)c2ccccc12,"inconclusive: 31.6 µM [inhibitor, partial curve]",
CCc1nnc(NS(=O)(=O)c2ccc(NC(=S)NC(=O)/C=C/c3ccc(C(C)C)cc3)cc2)s1,"inconclusive: 1 µM [inhibitor, full curve]",
COC(=O)c1cc(OC)c(OC)cc1NC(=O)c1c(-c2ccccc2)noc1C,"inconclusive: 39.8 µM [activator, single point]",
O=c1c(-c2ccccc2)nc2cnc(Oc3cccc(Cl)c3)nc2n1C1CC1,"inconclusive: 39.8 µM [activator, single point]",
CC/C(C)=C1\SC(N2CCN(C(C)=O)CC2)=NC1=O,,inactive: 5.67%
CC(=O)c1ccc2c(c1)C1C=CCC1C(c1ccncc1)N2 (stereo unspecified),,inactive: 29.8%
COC(=O)c1c(C)[nH]c(C(=O)C(C)Sc2nnc(-c3cc(OC)c(OC)c(OC)c3)o2)c1C (stereo unspecified),"inconclusive: 39.8 µM [activator, single point]",
